Laboratory results: PMC6919601, “Identification of Plasmodium dipeptidyl aminopeptidase allosteric inhibitors by high throughput screening” (PLoS ONE, 2019)
Hit rate of the full screen: of about 110,000 compounds, about 230 (0.21%) showed an effect of 50% or more. Some of the results follow.

target: DPAP1 (Plasmodium falciparum, UniProt Q8IIJ9); assay: primary screen, percent inhibition; read by cleavage of a fluorogenic dipeptide substrate; higher = more effect of the substance; set-up: species or system P. falciparum D10 trophozoite lysates; single well
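Further: 30 min substrate incubation versus DMSO and 10 µM JCP410 controls.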

Sequence of DPAP1 (Q8IIJ9 whole entry, looked up): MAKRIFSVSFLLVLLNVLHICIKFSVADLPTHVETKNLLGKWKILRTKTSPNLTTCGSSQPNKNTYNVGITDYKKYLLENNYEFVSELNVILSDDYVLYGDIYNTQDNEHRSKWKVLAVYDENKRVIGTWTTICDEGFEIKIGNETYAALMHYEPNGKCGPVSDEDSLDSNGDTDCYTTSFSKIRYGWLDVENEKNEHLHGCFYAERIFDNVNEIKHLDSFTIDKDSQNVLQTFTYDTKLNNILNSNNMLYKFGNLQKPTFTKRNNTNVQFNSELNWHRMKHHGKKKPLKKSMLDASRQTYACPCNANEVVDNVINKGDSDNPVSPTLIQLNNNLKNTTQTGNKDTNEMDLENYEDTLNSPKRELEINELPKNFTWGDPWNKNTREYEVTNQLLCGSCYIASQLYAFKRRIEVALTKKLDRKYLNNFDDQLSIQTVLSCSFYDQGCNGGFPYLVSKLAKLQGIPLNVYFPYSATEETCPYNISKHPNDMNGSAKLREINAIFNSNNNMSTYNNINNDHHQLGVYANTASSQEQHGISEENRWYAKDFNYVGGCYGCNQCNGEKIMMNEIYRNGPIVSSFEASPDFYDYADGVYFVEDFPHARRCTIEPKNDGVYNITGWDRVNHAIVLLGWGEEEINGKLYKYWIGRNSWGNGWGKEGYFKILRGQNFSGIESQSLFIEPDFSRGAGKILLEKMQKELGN

Structure (SMILES) | % Inhibition @ 10 uM
COc1ccc(S(=O)(=O)Cc2ccc(C(=O)NCCc3ccc(S(N)(=O)=O)cc3)o2)cc1 | -6.52%
CCOc1ccc(-c2nonc2NC(=O)C(CC)Oc2ccc(F)cc2)cc1OCC (centres unmarked) | 1.9%
Brc1ccc(CN2CCN(Cc3ccccc3)CC2)cc1 | -0.0404%
CC(=O)c1ccc(N2CCN(Cc3ccc(O)cc3)CC2)cc1 | -1.41%
CC1(C)CC(=O)C2=C(C1)N=C(S)C(C#N)C2c1ccccc1 (centres unmarked) | 18%
O=C(Nc1ccccc1)N1CCN(c2ccccc2)CC1 | 1.33%
CCn1cc(CCCC(=O)NC(C)c2ccc3c(c2)OCCO3)c2ccccc21 (centres unmarked) | 11.7%
CC1CC(c2csc(N)n2)CCO1 (centres unmarked) | -0.274%
O=C(O)CC(=O)N[C@@H](CC1CCCCC1)C(=O)N[C@@H](CCc1ccccc1)C(=O)c1nc2ccccc2o1 | -0.214%
Fc1ccc(COc2cccc(CNCCSc3nnnn3-c3ccccc3)c2)cc1 | 0.596%
CC1=NC2=C(C(=O)CCC2)C(c2ccc(Cl)cc2)/C1=C(/O)OC(C)C (centres unmarked) | 6.12%
O=C(NCc1ccc(Cl)c(Cl)c1)c1ccncc1 | -3.24%
N#Cc1c2c(c(NCCCO)n3c1nc1ccccc13)CCC2 | 22.6%
CCN1CCN(C(=O)C2c3ccccc3C(=O)N(CC(C)C)C2c2cccs2)CC1 (centres unmarked) | -5.92%
CC(=O)c1cc(-c2ccc(F)cc2)n(CCC(=O)NCc2cccnc2)c1 | -0.176%
CCO/C(O)=C1/C(C)=NC(=S)NC1C1CC=CCC1 (centres unmarked) | -6.83%
CCN1CCN(C(=O)C(NS(=O)(=O)c2ccc3nc(C)sc3c2)C(C)C)CC1 (centres unmarked) | -5.25%
Oc1ccccc1C1=NC(c2ccc(Br)cc2)NC(c2cccnc2)C1 (centres unmarked) | -4.58%
CC(C)C[C@@H](C(=O)NCC#N)c1cccc(-c2ccc(N3CCN(CC(F)(F)F)CC3)cc2)c1 | 1.7%
CCS(=O)(=O)C1=NN2C(=N)/C(=C\c3cc(C)n(-c4ccccc4C)c3C)C(=O)N=C2S1 | -1.54%
Cc1ccc(-n2nc(C)c3c2OC(N)=C(C#N)C3c2ccncc2)cc1 (centres unmarked) | 0.317%
O=C(Nc1ccc(-c2ccccc2)cc1)c1ccccc1NC(=O)C(F)(F)F | 1.96%
Cc1cc(O)c2c(C)c(CC(=O)NCc3ccco3)c(=O)oc2c1 | -0.808%
Cc1ccccc1C1CC(c2ccccc2OC(F)F)Nc2ncnn21 (centres unmarked) | -1.48%

Structure (SMILES) | % Inhibition @ 10 uM
COC(=O)C1=CN(Cc2ccc(OC)cc2)C=C(C(=O)OC)C1c1cc(OC)c(OC)c(OC)c1 | 2.26%
CC1CCCCN1C(=O)Cn1cc(C#N)c2ccccc21 (centres unmarked) | -1.07%
COc1cc(NC(=O)Cn2cnc3c(=O)n(C)c(=O)n(C)c32)cc(OC)c1 | -5.35%
Cc1onc(-c2c(F)cccc2Cl)c1C(=O)NCC1COc2ccccc2O1 (centres unmarked) | -3.83%
c1ccc(C2=NN(c3nc(-c4ccc(-c5ccccc5)cc4)cs3)C(c3ccccc3)C2)cc1 (centres unmarked) | -0.771%
COc1cc(Nc2nc(-c3ccccc3)cs2)c(OC)cc1Cl | 5.16%
O=C(Nc1ccc(S(=O)(=O)N2CCCC2)cc1)c1ccccc1Cl | 3.53%
CC1CCCCC1NC(=O)C(Cc1ccccc1)NS(=O)(=O)c1cccc2nsnc12 (centres unmarked) | -5.1%
COc1ccc(-c2cc(C(F)(F)F)n3ncc(C(=O)N4CCN5CCCC5C4)c3n2)cc1OC (centres unmarked) | -12.4%
COc1cc(OC)cc(C(=O)Nc2ccc(S(=O)(=O)Nc3cnc4ccccc4n3)cc2)c1 | 4.11%
COc1ccccc1Oc1nc2c(C)cccn2c(=O)c1/C=C(\C#N)S(=O)(=O)c1ccccc1 | -1.43%
CCS(=O)(=O)N1CCN(Cc2cc(OC)c(O)c(OC)c2)CC1 | -5.28%
O=C(COc1ccc(-c2cnc3ccccc3n2)cc1)c1cccs1 | -5.92%
Cc1ccc(OCCCn2c(=O)oc3ccccc32)cc1 | -6.51%
Cn1cccc1Cc1nnc(SCC(=O)NCc2ccc(F)cc2)n1-c1ccccc1 | 2.12%
COc1ccc(-c2cc(C)no2)cc1S(=O)(=O)NCCN1CCCCCC1 | 2.69%
Cc1ccc(C(=O)/C=C(\O)C(=O)O)cc1 | 1.42%
Cc1cccc(C)c1NC(=O)C1CCN(S(=O)(=O)c2ccccc2)CC1 | -3.09%
CCCOc1ccccc1C1C2=C(CC(C)(C)CC2=O)N(CCC(=O)O)C2=C1C(=O)CC(C)(C)C2 | 0.0504%
COC(=O)C1=CN(Cc2ccc(Cl)cc2)C=C(C(=O)OC)C1c1ccsc1 | 1.86%
CCOC(=O)N1CCN(C(=O)Cn2ncc3c4ccccc4n(Cc4ccccc4)c3c2=O)CC1 | 4.95%
Cc1cc(N)n2ncc(-c3ccccc3)c2n1 | -0.169%
CCCCCCNc1nc(NCc2ccco2)nc(OCC)n1 | 0.884%
COc1ccc(C2SCCN2S(=O)(=O)c2cc(OC)c(C)cc2C)cc1 (centres unmarked) | 15.9%

Structure (SMILES) | % Inhibition @ 10 uM
Cc1cc(NC(=O)c2ccc(NC(=O)C3CC3)cc2)no1 | 1.19%
COc1ccc(Cn2c(CCC(=O)NCc3ccco3)nc3cccnc32)cc1 | -8.68%
COc1ccccc1N1CCN(C(=O)c2ccc(Cl)c([N+](=O)[O-])c2)CC1 | 1.96%
Cc1ccc(CCNC(=O)Cn2nc(Cc3ccncc3)c3ccccc3c2=O)cc1 | -2.92%
O=C(NCc1ccco1)c1ccc(CN2C(=O)CCn3nccc32)cc1 | -11.1%
Cn1c(=O)c2sccc2n2c(CCCC(=O)NCC3CCCO3)nnc12 (centres unmarked) | -5.05%
CSC1(c2ccc(C)cc2)CC(C)=C(C)CS1=O (centres unmarked) | -0.988%
COCCCNC(=O)C1CCCN(c2nnc(C)c3c(C)n(-c4ccc(OC)cc4)nc23)C1 (centres unmarked) | 3.25%
COc1cc(OC)cc(C(=O)Nc2ccc(S(=O)(=O)Nc3nc(C)cc(C)n3)cc2)c1 | 10.4%
C#CCOc1ccc(/C=C2\SC(=O)N(CC)C2=O)cc1OC | -4.65%
CCn1cc(C(=O)Nc2ccc(C(=O)O)cc2)cn1 | -6.68%
COc1ccc([N+](=O)[O-])c2c(CCN3C(=O)c4ccccc4C3=O)c[nH]c12 | -1.76%
COc1ccc(Nc2cc(C)nc(-c3ccccc3O)n2)cc1 | 3.48%
COC(=O)C1=CN(C(C)C)C=C(C(=O)OC)C1c1ccc(C)s1 | 1.86%
COc1ccc2c(c1)C(N1CCN(CCO)CC1)Cc1ccccc1S2 (centres unmarked) | 0.59%
O=C(O)C1CCC(c2ccc(-c3ccccc3)cc2)CC1 (centres unmarked) | 0.98%
CCCN(CCO)Cc1ccc([N+](=O)[O-])cc1 | 1.62%
COc1ccc(OC)c(NC(=O)CN(c2ccc(Cl)cc2)S(=O)(=O)c2ccccc2)c1 | -10.2%
COc1cccc(C2C(C#N)=C(N)Oc3nc(O)nc(O)c32)c1 (centres unmarked) | 3.05%
CC(C)(C)c1cc(O)c2oc(=O)c(-c3nc4cc(C(=O)O)ccc4[nH]3)cc2c1 | 4.93%
CC1(C)CC2=Nc3ccccc3N(C(=O)Cc3ccccc3)C(c3ccccc3Cl)C2=C(O)C1 (centres unmarked) | -1.66%
Cc1ccc(C(=O)O)c2c1N[C@@H](c1ccccc1)[C@H]1CC=C[C@@H]21 | -5.82%
COc1ccc(-c2nn(C)c(=O)c3ccccc23)cc1CNS(C)(=O)=O | -6.94%
Cc1nnc(SCCCn2c(N3CCCCC3)nc3c2c(=O)[nH]c(=O)n3C)s1 | -0.946%

Structure (SMILES) | % Inhibition @ 10 uM
CCn1c2ccccc2c2cc(CN3CCN(c4ccccc4Cl)CC3)ccc21 | 2.23%
Cc1cc(S(=O)(=O)N2CCCC(C(=O)O)C2)ccc1Cl (centres unmarked) | 5.2%
CCOC(=O)N1CCC(NC(=O)c2ccc(CS(=O)(=O)c3ccc(OC)cc3)o2)CC1 | 0.458%
C[n+]1cc2ccccc2c2ccccc21 | 2.68%
N#CC1=C(N)OC2=C(C(=O)CC(c3ccccc3)C2)C1c1ccccc1Br (centres unmarked) | -0.99%
N#CCNC(=O)C(CCSc1ccncc1)NC(=O)c1ccccc1 (centres unmarked) | -3.49%
O=C(O)c1ccccc1C(=O)Nc1cccc2ccccc12 | -4.66%
CCOC(=O)c1cnc2nncn2c1N | 0.00706%
COc1cccc(NC(=O)CN(c2ccc(F)cc2)S(=O)(=O)c2ccc(C)cc2)c1 | -5.88%
Cc1ccc2nc(-c3ccccc3)c(CC(=O)O)c(C(=O)O)c2c1 | 1.94%
CCN(CC(O)CN)CC(O)COc1ccc(C(C)(C)C)cc1 (centres unmarked) | -7.35%
CCc1c(-c2ccccc2)nc2ccccc2c1C(=O)N1CCCC1 | -0.733%
COC(=O)c1c(NC(=O)COc2ccc(C(C)C)cc2)sc2c1CCC(C)C2 (centres unmarked) | 7.63%
Cn1c(=O)cc2c3c(c(Oc4ccccc4)ccc31)C(=O)c1ccccc1-2 | 4.07%
CCOC(=O)NC(c1c(N)n(C)c(=O)n(C)c1=O)(C(F)(F)F)C(F)(F)F | 1.72%
CCCO/C(O)=C1\C(C)=NC2=C(C(=O)CC(c3cccs3)C2)C1c1cccc(OC)c1OC (centres unmarked) | 6.97%
Cc1ccc(CNC(=O)C(=O)NCC(c2cccnc2)N2CCOCC2)cc1 (centres unmarked) | -3.51%
CCOC(=O)C1=C(C)N=c2s/c(=C/C=C/c3ccccc3)c(=O)n2C1c1ccc(OC)cc1 (centres unmarked) | 8.01%
CSc1nc(SCc2ccccc2Cl)nc(N)c1C#N | 9.94%
O=C(NCCCc1ccccc1)C1CCC(CNS(=O)(=O)c2cccc3cccnc23)CC1 (centres unmarked) | -4.21%
Cc1c(CNC(=O)c2nn3c(C(F)(F)F)cc(-c4ccccc4)nc3c2Cl)cnn1C | -3.9%
CCOC(=O)N1CCN(c2c(NCC3CCCO3)c(=O)c2=O)CC1 (centres unmarked) | -5.05%
COc1cccc(C(=O)Nc2cccnc2)c1OC | -5.41%
